Experimental findings from the antibiotic and cytotoxicity screens of Wong et al. (2023) are described below.

The list shows a part of the results.

In one assay the test system is HSkMC. In words: cytotoxicity call (relative viability < 0.9). The settings on record: 10 µM.
A further assay has as its system HepG2. In words: cytotoxicity call (relative viability < 0.9). The following applies: 10 µM.
A further assay has as its system S. aureus RN4220. In words: growth inhibition call (relative growth <= 0.2). The following applies: 50 µM.

For the molecule `COCC#Cc1ccc2c(c1)O[C@H](CN(C)S(=O)(=O)c1ccc(OC)cc1)[C@H](C)CN([C@H](C)CO)S2(=O)=O`, the cytotoxicity call in the assay on HSkMC and with HepG2 was “inactive” each time. Moreover, in the assay on S. aureus RN4220, the growth inhibition call was “inactive”.
In the case of `C[C@@H]1CCCCO[C@H](CN(C)C(=O)Cc2ccccc2)[C@@H](C)CN([C@H](C)CO)C(=O)c2cc(NC(=O)Nc3ccc(F)cc3)ccc2O1`, the cytotoxicity call in the assay with HSkMC and in the assay with HepG2 was “inactive” in each case. In addition, the growth inhibition call with S. aureus RN4220 is “inactive”.
In the case of `C[C@H](CO)N1C[C@H](C)[C@@H](CN(C)C(=O)Nc2ccc(F)cc2)Oc2c(NC(=O)CCCCCC(=O)Nc3ccccc3N)cccc2C1=O`, the cytotoxicity call in the assay with HSkMC and in the assay on HepG2 was “inactive” in each case. The growth inhibition call in the assay with S. aureus RN4220 was “inactive”.
On to `CO[C@@H]1CN(C)C(=O)c2cc(NC(=O)CC(F)(F)F)ccc2OC[C@H](C)N(S(=O)(=O)c2cn(C)cn2)C[C@@H]1C`, for which the cytotoxicity call in the assay with HSkMC and with HepG2 was “inactive” throughout. Further, in the assay on S. aureus RN4220, the growth inhibition call was “inactive”.
As for `O=C(C[C@@H]1CC[C@@H]2[C@H](COC[C@H](O)CN2S(=O)(=O)c2cccc(F)c2)O1)NCc1ccc2c(c1)OCO2`, the cytotoxicity call with HSkMC and in the assay with HepG2 was “inactive” throughout. Also, in the assay on S. aureus RN4220, the growth inhibition call was “inactive”.
On to `COCC(=O)Nc1ccc2c(c1)C(=O)N(C)[C@@H]1CC[C@@H](CC(=O)NCc3ccc(OC)cc3)O[C@H]1CO2`, for which the cytotoxicity call in the assay on HSkMC and in the assay on HepG2 was “inactive” each time. In addition, in the assay with S. aureus RN4220, the growth inhibition call was “inactive”.
Regarding `C[C@H]1CN([C@@H](C)CO)C(=O)c2c(c3ccccc3n2C)-c2ccccc2CO[C@H]1CN(C)Cc1ccc(C(=O)O)cc1`, the cytotoxicity call in the assay on HSkMC and with HepG2 was “inactive” throughout. For the same molecule, the growth inhibition call in the assay with S. aureus RN4220 was “inactive”.
As for `CC(C)c1ccccc1O`, the cytotoxicity call with HSkMC and in the assay on HepG2 was “inactive” in each case. In addition, in the assay with S. aureus RN4220, the growth inhibition call is “inactive”.
As for `Cc1cc(O)n(C[C@@H](C)O)c(=O)c1C#N`, the cytotoxicity call in the assay on HSkMC and with HepG2 was “inactive” each time. In addition, in the assay on S. aureus RN4220, the growth inhibition call was “inactive”.
In the case of `C[C@@H]1CN([C@@H](C)CO)C(=O)Cc2cc(NC(=O)CCCN(C)C)ccc2O[C@@H]1CN(C)S(=O)(=O)c1cccs1`, the cytotoxicity call in the assay with HSkMC and in the assay on HepG2 was “inactive” in each case. Moreover, the growth inhibition call in the assay on S. aureus RN4220 was “inactive”.
For `C[C@@H]1CN([C@H](C)CO)C(=O)c2cc(NC(=O)Cn3cnnn3)ccc2O[C@H]1CN(C)CC1CCCCC1`, the cytotoxicity call with HSkMC and in the assay on HepG2 was “inactive” throughout. Further, the growth inhibition call in the assay with S. aureus RN4220 is “inactive”.
Consider `COc1ccc(COCC23Oc4ccccc4[C@H]([C@H]2COC(=O)NCCCCCC(=O)NO)n2c(c4c(c(C(C)=O)c2=O)C(=O)N(C)C4=O)N3C)cc1`, for which the cytotoxicity call in the assay with HSkMC and in the assay on HepG2 was “inactive” each time. In addition, the growth inhibition call in the assay on S. aureus RN4220 is “inactive”.
As for `C[C@H]1CCCCO[C@H](CN(C)Cc2ccc(C(=O)Nc3ccccc3N)cc2)[C@@H](C)CN([C@@H](C)CO)C(=O)c2cc(N(C)C)ccc2O1`, the cytotoxicity call with HSkMC and with HepG2 was “inactive” in each case. The growth inhibition call in the assay on S. aureus RN4220 was “inactive”.
`C[C@@H]1CN([C@H](C)CO)C(=O)Cc2cc(NC(=O)Nc3ccc4c(c3)OCO4)ccc2O[C@H]1CN(C)Cc1ccc(Oc2ccccc2)cc1`: the cytotoxicity call in the assay with HSkMC and in the assay on HepG2 was “inactive” throughout. Moreover, the growth inhibition call in the assay on S. aureus RN4220 was “inactive”.
In the case of `COc1ccc2c3c([nH]c2c1)[C@@H](CO)N(C[C@]13CCN(CC1)C(=O)Nc1cccc(c1)F)C(=O)c1ccccc1`, the cytotoxicity call in the assay with HSkMC and in the assay on HepG2 was “inactive” throughout. In the assay on S. aureus RN4220, the growth inhibition call is “inactive”.
Consider `COc1ccc(S(=O)(=O)N(C)C[C@@H]2Oc3ncc(C#Cc4ccc(F)cc4)cc3C(=O)N([C@H](C)CO)C[C@@H]2C)cc1`, for which the cytotoxicity call with HSkMC and in the assay on HepG2 was “inactive” in each case. Moreover, the growth inhibition call in the assay on S. aureus RN4220 was “inactive”.
In the case of `COC1=C(OC)C(=O)C(C/C=C(\C)CC/C=C(\C)CC/C=C(\C)CC/C=C(/C)CC/C=C(\C)CC/C=C(\C)CC/C=C(\C)CC/C=C(\C)CC/C=C(\C)CCC=C(C)C)=C(C)C1=O`, the cytotoxicity call with HSkMC and in the assay with HepG2 was “inactive” throughout. The growth inhibition call in the assay on S. aureus RN4220 is “inactive”.
With `COc1ccc(NC(=O)N(C)C[C@@H]2OCCCC[C@@H](C)Oc3ccc(NC(=O)c4ccccc4)cc3C(=O)N([C@@H](C)CO)C[C@H]2C)cc1`, the cytotoxicity call in the assay with HSkMC and in the assay on HepG2 was “inactive” throughout. The growth inhibition call in the assay with S. aureus RN4220 was “inactive”.
With `O=C(C[C@@H]1CC[C@H]2[C@@H](COC[C@@H](O)CN2C(=O)c2ccccn2)O1)NC1CCC1`, the cytotoxicity call in the assay on HSkMC and in the assay on HepG2 was “inactive” throughout. Also, the growth inhibition call in the assay on S. aureus RN4220 is “inactive”.
For `COc1ccc(/C=C/C(=O)C=C(O)/C=C/c2ccc(OC)c(OC)c2)cc1OC`, the cytotoxicity call in the assay on HSkMC and in the assay with HepG2 was “inactive” throughout. Moreover, the growth inhibition call with S. aureus RN4220 was “inactive”.
Take `C[C@H](CO)N1C[C@H](C)[C@@H](CN(C)S(=O)(=O)c2ccccc2)Oc2ccc(NC(=O)C3CC3)cc2C1=O`: the cytotoxicity call with HSkMC and with HepG2 was “inactive” throughout. The growth inhibition call in the assay with S. aureus RN4220 was “inactive”.
For the molecule `C[C@@H]1CN([C@@H](C)CO)C(=O)c2cc(NS(=O)(=O)c3ccc(Cl)cc3)ccc2O[C@@H]1CN(C)Cc1ccc(C(=O)Nc2ccccc2N)cc1`, in the assay with HSkMC, the cytotoxicity call is “inactive”. Moreover, the cytotoxicity call in the assay on HepG2 was “active”. In the assay with S. aureus RN4220, the growth inhibition call is “inactive”.
For the molecule `O=C(C[C@@H]1C=C[C@@H](NS(=O)(=O)c2ccc(F)cc2)[C@@H](CO)O1)NCCN1CCCCC1`, the cytotoxicity call in the assay on HSkMC (human skeletal muscle cells) and in the assay with HepG2 was “inactive” throughout. Besides, the growth inhibition call in the assay with S. aureus RN4220 is “inactive”.
`C[C@@H]1CN([C@H](C)CO)S(=O)(=O)c2ccc(C#CC3(O)CCCC3)cc2O[C@H]1CN(C)C(=O)Nc1ccccc1`: the cytotoxicity call in the assay with HSkMC and in the assay with HepG2 was “inactive” in each case. Further, the growth inhibition call with S. aureus RN4220 is “inactive”.
In the case of `COC(=O)N1CCC(CN)CC1`, the cytotoxicity call with HSkMC and in the assay with HepG2 was “inactive” throughout. In the assay on S. aureus RN4220, the growth inhibition call is “inactive”.
Regarding `C[C@H](CO)N1C[C@H](C)[C@H](CN(C)C(=O)Nc2ccc(C(F)(F)F)cc2)OCCCC[C@H](C)Oc2ccc(NC(=O)NC3CCCCC3)cc2C1=O`, the cytotoxicity call in the assay with HSkMC and with HepG2 was “inactive” in each case. The growth inhibition call with S. aureus RN4220 was “inactive”.
In the case of `C[C@@H]1CCCCO[C@@H](CN(C)S(=O)(=O)c2cn(C)cn2)[C@H](C)CN([C@@H](C)CO)C(=O)c2cc(NS(=O)(=O)c3cn(C)cn3)ccc2O1`, the cytotoxicity call in the assay with HSkMC and in the assay with HepG2 was “inactive” throughout. Also, the growth inhibition call in the assay on S. aureus RN4220 is “inactive”.
